Here are results for one molecule from article PMC12311180.

The chains behind the UniProt entries cited, without tags or fusion partners.
UniProt Q2PPJ7: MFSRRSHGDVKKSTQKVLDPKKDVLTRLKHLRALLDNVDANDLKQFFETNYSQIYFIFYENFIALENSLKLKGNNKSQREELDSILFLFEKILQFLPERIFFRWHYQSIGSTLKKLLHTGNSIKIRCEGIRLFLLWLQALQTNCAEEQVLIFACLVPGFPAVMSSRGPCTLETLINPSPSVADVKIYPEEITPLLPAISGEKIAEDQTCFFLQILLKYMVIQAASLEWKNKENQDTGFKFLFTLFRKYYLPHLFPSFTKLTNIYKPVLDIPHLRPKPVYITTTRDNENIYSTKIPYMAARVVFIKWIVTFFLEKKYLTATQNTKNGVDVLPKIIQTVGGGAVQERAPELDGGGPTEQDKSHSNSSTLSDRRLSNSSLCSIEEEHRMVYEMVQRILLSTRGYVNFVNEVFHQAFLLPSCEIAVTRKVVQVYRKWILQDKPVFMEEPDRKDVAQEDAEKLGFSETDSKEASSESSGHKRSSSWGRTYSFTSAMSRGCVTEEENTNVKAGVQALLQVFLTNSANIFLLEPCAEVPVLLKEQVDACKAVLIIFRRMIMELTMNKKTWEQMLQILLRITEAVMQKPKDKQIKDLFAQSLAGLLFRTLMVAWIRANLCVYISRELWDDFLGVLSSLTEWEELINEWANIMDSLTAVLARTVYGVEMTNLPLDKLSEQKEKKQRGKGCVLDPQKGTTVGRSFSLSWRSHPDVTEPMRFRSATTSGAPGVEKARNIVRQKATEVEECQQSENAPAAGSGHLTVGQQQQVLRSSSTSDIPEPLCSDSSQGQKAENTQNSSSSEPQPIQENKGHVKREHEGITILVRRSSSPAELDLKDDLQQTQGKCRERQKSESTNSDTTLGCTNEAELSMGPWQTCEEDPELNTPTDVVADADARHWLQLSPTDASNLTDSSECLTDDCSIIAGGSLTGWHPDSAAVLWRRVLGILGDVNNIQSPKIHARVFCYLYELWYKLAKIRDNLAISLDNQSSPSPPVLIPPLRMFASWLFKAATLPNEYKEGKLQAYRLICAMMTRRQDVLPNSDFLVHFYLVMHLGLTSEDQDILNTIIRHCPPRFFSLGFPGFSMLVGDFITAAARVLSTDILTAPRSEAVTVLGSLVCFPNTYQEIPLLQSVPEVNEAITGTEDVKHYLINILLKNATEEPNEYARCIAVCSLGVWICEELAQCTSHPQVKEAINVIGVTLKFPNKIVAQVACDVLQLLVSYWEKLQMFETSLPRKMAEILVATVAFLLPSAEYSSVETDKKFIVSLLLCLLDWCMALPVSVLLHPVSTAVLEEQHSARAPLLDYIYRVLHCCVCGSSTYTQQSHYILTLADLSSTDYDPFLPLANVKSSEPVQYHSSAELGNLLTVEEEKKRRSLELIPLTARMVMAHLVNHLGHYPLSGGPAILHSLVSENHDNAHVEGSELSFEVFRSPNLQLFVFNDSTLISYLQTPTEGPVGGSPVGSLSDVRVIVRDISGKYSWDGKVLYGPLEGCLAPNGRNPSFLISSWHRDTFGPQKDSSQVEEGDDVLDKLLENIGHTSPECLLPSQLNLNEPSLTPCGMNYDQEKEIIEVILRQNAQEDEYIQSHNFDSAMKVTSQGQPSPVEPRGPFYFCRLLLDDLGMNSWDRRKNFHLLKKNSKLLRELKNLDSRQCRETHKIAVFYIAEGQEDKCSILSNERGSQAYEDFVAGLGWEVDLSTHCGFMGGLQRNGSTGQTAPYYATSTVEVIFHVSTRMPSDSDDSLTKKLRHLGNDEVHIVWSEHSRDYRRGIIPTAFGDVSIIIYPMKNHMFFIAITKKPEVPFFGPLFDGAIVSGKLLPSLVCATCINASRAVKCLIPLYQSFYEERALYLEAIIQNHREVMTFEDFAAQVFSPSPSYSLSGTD

Assay [1] deals with RGβ^D4 (V29E, V33Q, V37E, W65R), transiently expressed in HEK293FT cells for co-immunoprecipitation (UniProt Q86X10). Kind of assay: co-IP; transiently transfected HEK293T/HEK293FT cells; CoIP buffer 40 mM HEPES, 120 mM NaCl, 10 mM MgCl2, 0.3% CHAPS, pH 7.4; 3xflag beads 2-4 h; western blot. On the technique in general: In western blotting, separated proteins are transferred to a membrane and probed.

Assay [2] deals with RGα2 full-length (RGα2^fl), transiently expressed in HEK293 cells for co-immunoprecipitation (UniProt Q2PPJ7). Described as above.

No constants are given. Whether binding was seen depends on the method and setting. In cells and extracts the contact can be indirect. Some binding calls cover weakened binding; strength is not graded here.

B1: RGβ^D4 (V29E, V33Q, V37E, W65R), transiently expressed in HEK293FT cells for co-immunoprecipitation (protein, UniProt Q86X10 1-1494)
chain: MYSEWRSLHLVIQNDQGHTSVLHSYPESEGREQANAEVRPLGQVLGTPSVAGSENLLKTDKEVKRTMEVICYGLTLPLDGETVKYCVDVYTDWIMALVLPKDSIPLPVIKEPNQYVQTILKHLQNLFVPRQEQGSSQIRLCLQVLRAIQKLARESSLMARETWEVLLLFLLQINDILLAPPTVQGGIAENLAEKLIGVLFEVWLLACTRCFPTPPYWKTAKEMVANWRHHPAVVEQWSKVICALTSRLLRFTYGPSFPAFKVPDEDASLIPPEMDNECVAQTWFRFLHMLSNPVDLSNPAIISSTPKFQEQFLNVSGMPQELNQYPCLKHLPQIFFRAMRGISCLVDAFLGISRPRSDSAPPTPVNRLSMPQSAAVSTTPPHNRRHRAVTVNKATMKTSTVSTAHASKVQHQTSSTSPLSSPNQTSSEPRPLPAPRRPKVNSILNLFGSWLFDAAFVHCKLHNGINRDSSMTAITTQASMEFRRKGSQMSTDTMVSNPMFDASEFPDNYEAGRAEACGTLCRIFCSKKTGEEILPAYLSRFYMLLIQGLQINDYVCHPVLASVILNSPPLFCCDLKGIDVVVPYFISALETILPDRELSKFKSYVNPTELRRSSINILLSLLPLPHHFGTVKSEVVLEGKFSNDDSSSYDKPITFLSLKLRLVNILIGALQTETDPNNTQMILGAMLNIVQDSALLEAIGCQMEMGGGENNLKSHSRTNSGISSASGGSTEPTTPDSERPAQALLRDYALNTDSAAGLLIRSIHLVTQRLNSQWRQDMSISLAALELLSGLAKVKVMVDSGDRKRAISSVCTYIVYQCSRPAPLHSRDLHSMIVAAFQCLCVWLTEHPDMLDEKDCLKEVLEIVELGISGSKSKNNEQEVKYKGDKEPNPASMRVKDAAEATLTCIMQLLGAFPSPSGPASPCSLVNETTLIKYSRLPTINKHSFRYFVLDNSVILAMLEQPLGNEQNDFFPSVTVLVRGMSGRLAWAQQLCLLPRGAKANQKLFVPEPRPVPKNDVGFKYSVKHRPFPEEVDKIPFVKADLSIPDLHEIVTEELEERHEKLRSGMAQQIAYEIHLEQQSEEELQKRSFPDPVTDCKPPPPAQEFQTARLFLSHFGFLSLEALKEPANSRLPPHLIALDSTIPGFFDDIGYLDLLPCRPFDTVFIFYMKPGQKTNQEILKNVESSRTVQPHFLEFLLSLGWSVDVGRHPGWTGHVSTSWSINCCDDGEGSQQEVISSEDIGASIFNGQKKVLYYADALTEIAFVVPSPVESLTDSLESNISDQDSDSNMDLMPGILKQPSLTLELFPNHTDNLNSSQRLSPSSRMRKLPQGRPVPPLGPETRVSVVWVERYDDIENFPLSELMTEISTGVETTANSSTSLRSTTLEKEVPVIFIHPLNTGLFRIKIQGATGKFNMVIPLVDGMIVSRRALGFLVRQTVINICRRKRLESDSYSPPHVRRKQKITDIVNKYRNKQLEPEFYTSLFQEVGLKNCSS
Turning to B1, the results for the binding result in assay [1] and in assay [2] were “no binding” and “binds”, respectively.
